Measurements taken from patent US9974865B2, “Antibody drug conjugates (ADC) that bind to FLT3 proteins” (AGENSYS, INC., priority 2015, dated 2018).

Tests used:
[1] = molecular target: T1, Recombinant human FLT3-Fc / biotinylated FLT3 ligand (Homo sapiens, UniProt P36888); experiment: Luminex FLT3 ligand blocking assay; type: binding; conditions: biotinylated FLT3 ligand 5 ng/mL, antibody 10 μg/mL, 60 minutes
T1 construct: purchased R and D Systems
From the text: In one experiment, the CHv62.21 MAb of the invention was confirmed to not block FL. Briefly, Recombinant human FLT3-Fc was purchased from R and D Systems. This protein was immobilized onto the surface of activated Luminex microspheres using standard sulfo-NHS/EDC chemistry according to the procedure provided by Luminex. A His-tagged version of the protein, along with several other proteins were conjugated to Luminex microspheres, and served as controls in this procedure.
In addition, FLT3 ligand was also purchased from R and D Systems. The ligand was biotinylated using Thermo Scientific EZ-Link Sulfo-NHS-LC-Biotin, No-Weigh Formula according to the manufacturer's recommendations. After two (2) hours of reacting the protein with Sulfo-NHS-LC-Biotin, unincorporated biotin was removed by dialysis against DPBS.
The ability of FLT3 immobilized onto the surface of the microspheres to bind to its biotinylated ligand was assessed by reacting the microspheres with various concentrations of biotinylated ligand, prepared in buffer containing PBS, 2% BSA, 0.05% Tween 20, and 0.1% sodium azide, for 120 minutes at RT with gentle shaking. At the end of the incubation, the microspheres were aspirated and washed. Biotinylated FLT3 ligand bound to its immobilized receptor was detected with Streptavidin-R-Phycoerythrin (Moss, Inc.). The fluorescence associated with the microspheres was measured with the Luminex instrument.
Finally, to assess the ability of the FLT3 antibodies to potentially block ligand, mixtures were prepared containing biotinylated FLT3 ligand at 5 ng/mL, plus the various antibodies under investigation at 10 μg/mL. These mixtures were applied to the FLT3 immobilized onto the microspheres and incubated for 60 minutes. […] Biotinylated FLT3 ligand bound to its immobilized receptor was detected with Streptavidin-R-Phycoerythrin (Moss, Inc.). The fluorescence associated with the microspheres was measured with the Luminex instrument. Antibodies with the capability to block ligand were observed by reduction in MFI (median fluorescence intensity).

EOL-1 cells = experiment: EOL-1 growth with human FLT3 ligand and antibody (Cell Titer Glo, 5 days); type: cell-based; conditions: FLT3 ligand 50, 10 or 5 ng/mL, antibody 10, 1, 0.1 μg/mL
Protocol: The ability of FLT3 antibodies (CHv62.21 and v62-1b37.1) to mediate the effect of human FLT3 ligand was evaluated using the human leukemia EOL-1 cell line, which endogenously expresses FLT3. Isotype control antibody (mLys-1c3.1) was also used. […] The next day, cells were treated with 50, 10 or 5 ng/mL of human FLT3 ligand (in 25 μl of complete media) and 10, 1, 0.1 and 0 μg/mL of test antibody (in 25 μl of complete media). Media alone was used as the untreated control. […] At the end of the incubation period, 100 μl of Cell Titer Glo was added to each well and incubated for 30 minutes, shaking, at room temperature.

[2] = test system: FLT3 expressed on the surface of MOLM-13 cells; experiment: FACS binding of biotinylated antibodies in the presence of human FLT3 Ligand; conditions: hFL from 100 ng/mL serially diluted 1:2, 4° C.
Protocol: In another experiment, The ability of anti-FLT3 antibodies, CHv62.21 and v62-1b37.1, to bind to FLT3 expressed on the surface of human leukemia MOLM-13 cell line was evaluated in the presence of human FLT3 Ligand (hFL). Isotype control antibody, AGS91.1-pAF, was used as a negative control.
Briefly, The MOLM-13 cells were seeded at a density of 50,000 cells per well onto round-bottom 96 well plates. The plates were washed one time with 150 μl per well of PBS. The cells were Fc blocked (20 μg/mL) at a volume of 50 μl per well in FACS buffer (PBS+2% FBS+0.1% sodium azide) to reduce non-specific binding. Cells were incubated at 4° C. for 15 minutes. Human FLT3 Ligand was added to appropriate wells at 100 ng/mL and serially diluted 1:2 across the plate for a total of 11 points. Cells were incubated for 30 minutes at 4° C. prior to adding biotinylated FLT3 antibodies. After incubation, the biotinylated anti-FLT3 antibodies and isotype control antibody were prepared in FACS buffer at 10 μg/mL and 1 μg/mL and 25 μl was added to wells and incubated for 1 hour at 4° C. Cells were washed two times with FACS buffer and Streptavidin-PE (Jackson immune) was added 100 μl per well and incubated for 1 hour at 4° C. Cells were washed two times with FACS buffer and read on the Attune Cytometer (Life technologies) and analyzed in FlowJo (Tree Star) software.

RS-4-11 cells = type: cell-based, human

| Molecule | blocking of FLT3 ligand binding to FLT3 [1] | blocking of FLT3 ligand binding to FLT3 ([1]; listed as 1b37.1) | effect on growth in the presence of FLT3 ligand (EOL-1 cells) | interference of human FLT3 Ligand with antibody binding [2] | cytotoxicity (RS-4-11 cells) |
| --- | --- | --- | --- | --- | --- |
| v62-1b37.1: FLT3 ligand blocking FLT3 Mab, heavy chain SEQ ID NO: 12, light chain SEQ ID NO: 13 (antibody, listed as Homo sapiens, v62-1b37.1 heavy chain; v62-1b37.1 light chain) heavy: EVQLVESGGGVVRPGGSLRLSCAASGFTFDDYGMSWVRQAPGKGLEWVSGINWNGGSTGYADSVKGRFTISRDDAKNSLYLQMNSLRAEDTALYHCARDGYTYGPFDNWGQGTLVTVSS[skipping human IgG1 constant region] light: DIQMTQSPSSLSASVGDRVTITCRASQGIRNDLGWYQQKPGKAPKRLIYAASSLQSGVPSRFSGSGSGTEFTLTISSLQPEDFATYYCLQHNSYPYTFGQGTKLEIKRTVAAPSVFIFPPSDEQLKSGTASVVCLLNNFYPREAKVQWKVDNALQSGNSQESVTEQDSKDSTYSLSSTLTLSKADYEKHKVYACEVTHQGLSSPVTKSFNRGEC | FL blocker | FLT3 ligand blocker | inhibits growth at high concentrations | does interfere with the binding | – |
| v62-1b37.1-AGL-0129-08 (conjugate) heavy: EVQLVESGGGVVRPGGSLRLSCAASGFTFDDYGMSWVRQAPGKGLEWVSGINWNGGSTGYADSVKGRFTISRDDAKNSLYLQMNSLRAEDTALYHCARDGYTYGPFDNWGQGTLVTVSS[skipping human IgG1 constant region] light: DIQMTQSPSSLSASVGDRVTITCRASQGIRNDLGWYQQKPGKAPKRLIYAASSLQSGVPSRFSGSGSGTEFTLTISSLQPEDFATYYCLQHNSYPYTFGQGTKLEIKRTVAAPSVFIFPPSDEQLKSGTASVVCLLNNFYPREAKVQWKVDNALQSGNSQESVTEQDSKDSTYSLSSTLTLSKADYEKHKVYACEVTHQGLSSPVTKSFNRGEC | – | – | – | – | can induce cytotoxicity |
